Measured values: PubChem BioAssay (NCATS)
The shares of active, inactive and inconclusive entries below differ from those in the screen. A potency beside an inconclusive call is a rough fit, not a confirmed value. Active and inactive are the calls of the source. Unless noted, the call rests on the fitted dose curve; in most records, active means well fitted curve in the direction sought with a large enough effect; inconclusive means small, poorly fitted or top-dose-only effect, or another doubt; inactive means no such curve, though single readings can be large; an effect the other way counts as inactive or inconclusive.

Test system: not listed separately
Assay: NCATS anti-infectives library activity on the primary C. elegans qHTS viability assay (AID 1745855; calls by dose curve)
Conditions: C. elegans worm area imaging, day 7; series mostly up to 41.8 µM
Procedure, shortened: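 Viability is taken from GFP fluorescence of PE254-GFP-FLuc C. elegans imaged by laser cytometry over 7 days. Ten L1 worms per well grow at 21 °C on TOP10 E. coli capsules with titrated compound; levamisole marks toxicity.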
Potency means the concentration at half of the fitted maximal effect; tags describe the fitted curve by direction and shape.

For O=C(CCCN1CCC(O)(c2ccc(Cl)cc2)CC1)c1ccc(F)cc1, which Potency is on record?
The Potency was “inactive”.

Which Potency does the source give for COc1cccc2c1CCCC2CCCN1CCN(C2CCCCC2)CC1 (centres undefined) here?
Its Potency is “inactive”.

For C[C@H](NC(=O)[C@@H](O)c1cc(F)cc(F)c1)C(=O)N[C@@H]1C(=O)N(C)c2ccccc2-c2ccccc21, which Potency is on record?
The Potency was active: 0.365 µM.

Which Potency does the source give for NC(=O)c1ccccc1 here?
The Potency was “inactive”.

With CCCCCCCCCCCCCCCC(=O)NCCO as the molecule, how does the Potency read?
Its Potency is inconclusive: 25.8 µM [inhibitor, single point].

Target: Metallo-beta-lactamase type 2 (Klebsiella pneumoniae) (UniProt C7C422)
Assay: qHTS to identify inhibitors of the New Delhi Metallo-beta-lactamase (NDM): assay validation screen against the NCATS LOPAC Collection (AID 1794843)
Conditions: NDM-1 enzyme, nitrocefin hydrolysis, absorbance 485 nm; series mostly up to 38.4 µM
Procedure, shortened: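 Nitrocefin hydrolysis (50 uM substrate stock) by NDM-1, 2 nM final, was followed by 485 nm absorbance after compound preincubation; buffer was 50 mM HEPES pH 7.0, 1 uM ZnSO4, 0.01% Tween20.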

Sequence of UniProt C7C422 (C7C422 whole entry, looked up): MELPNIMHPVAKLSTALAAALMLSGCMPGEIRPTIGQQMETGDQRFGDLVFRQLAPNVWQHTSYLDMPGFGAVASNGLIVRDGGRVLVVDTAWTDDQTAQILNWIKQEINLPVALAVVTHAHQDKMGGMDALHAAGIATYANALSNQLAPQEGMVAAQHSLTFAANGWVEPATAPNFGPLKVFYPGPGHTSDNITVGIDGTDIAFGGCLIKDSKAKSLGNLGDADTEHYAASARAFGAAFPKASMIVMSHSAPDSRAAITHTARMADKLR

Which Potency does the source give for COc1ccccc1OCC(O)CN1CCN(CC(=O)Nc2c(C)cccc2C)CC1 (centres undefined) here?
The Potency was inconclusive: 31.6 µM [inhibitor, single point].

For Nc1ncnc2c1ncn2[C@@H]1O[C@H](COP(=O)(O)CP(=O)(O)OP(=O)(O)O)[C@@H](O)[C@H]1O, which Potency is on record?
Its Potency is inconclusive: 31.6 µM [inhibitor, partial curve, poor fit].

With CC(C)NC[C@@H](O)c1ccc(O)c(O)c1 as the molecule, how does the Potency read?
The Potency was inconclusive: 22.4 µM [inhibitor, single point].

With CC(C)(C)c1onc(OCP(=O)(O)O)c1CC(N)C(=O)O (centres undefined) as the molecule, how does the Potency read?
Its Potency is inconclusive: 2.82 µM [inhibitor, full curve].

With CN[C@H](CC(=O)O)C(=O)O as the molecule, how does the Potency read?
The Potency was inconclusive: 1 µM [inhibitor, full curve].

Target: Glutathione peroxidase 1 (Homo sapiens) (UniProt P07203)
Assay: Primary qHTS Assay for Inhibitors of Recombinant Selenoprotein Glutathione Peroxidase 1 (GPX1) (AID 1845191); further: nearly all actives have a fitted effect of over 65% in size
Conditions: recombinant GPX1, GR-coupled NADPH fluorescence, 15 min; series mostly up to 48.8 µM
Procedure, shortened: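 Recombinant GPX1 (10 nM final) was preincubated with compound for 30 min at room temperature, then reacted with 1 mM GSH, 0.5 mM CHP, 0.5 mM NADPH and 100 nM glutathione reductase; NADPH fluorescence (340/450 nm) was read at 0 and 15 min.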

Sequence of UniProt P07203 (P07203 whole entry, looked up): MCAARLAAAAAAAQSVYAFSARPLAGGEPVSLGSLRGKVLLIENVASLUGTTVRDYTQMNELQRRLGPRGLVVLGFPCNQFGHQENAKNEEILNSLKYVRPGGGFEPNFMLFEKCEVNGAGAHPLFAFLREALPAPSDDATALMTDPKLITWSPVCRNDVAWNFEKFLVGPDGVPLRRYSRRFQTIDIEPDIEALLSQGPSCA

Which Potency does the source give for CCCCCNC(=O)N1CCC(CN(Cc2ccc(Cl)cc2)Cc2ccc([N+](=O)[O-])s2)C1 (centres undefined) here?
Its Potency is active: 2.05 µM.

Which Potency does the source give for Cc1ccc2nc(NCCN)c3ncc(C)n3c2c1 here?
Its Potency is inconclusive: 23 µM [inhibitor, single point].

For COc1cccc2c1CCCC2CCCN1CCN(C2CCCCC2)CC1 (centres undefined), which Potency is on record?
Its Potency is “inactive”.

With O=C(c1ccccc1)c1ccc2n1CCC2C(=O)O (centres undefined) as the molecule, how does the Potency read?
Its Potency is inconclusive: 16.3 µM [inhibitor, partial curve].

With COC(=O)C1=C(C)NC(C)=C(C(=O)OCC(C)=O)C1c1ccccc1[N+](=O)[O-] (centres undefined) as the molecule, how does the Potency read?
The Potency was inconclusive: 22.7 µM [inhibitor, partial curve, poor fit].

With Oc1cccc(-c2c3nc(c(-c4cccc(O)c4)c4ccc([nH]4)c(-c4cccc(O)c4)c4nc(c(-c5cccc(O)c5)c5ccc2[nH]5)CC4)C=C3)c1 as the molecule, how does the Potency read?
The Potency was inconclusive: 28.6 µM [inhibitor, single point].

Which Potency does the source give for COc1ccnc2c1CCCCC2S(=O)c1nc2ccccc2[nH]1 (centres undefined) here?
The Potency was inconclusive: 8.06 µM [inhibitor, partial curve].

For O=C(O)c1cc(O)c2c(c1)C(=O)c1cccc(O)c1C2=O, which Potency is on record?
Its Potency is inconclusive: 2.58 µM [inhibitor, partial curve].

Which Potency does the source give for O=C1C(SCCO)=C(SCCO)C(=O)c2ccccc21 here?
The Potency was inconclusive: 28.2 µM [inhibitor, single point].

Target: Phospholipid hydroperoxide glutathione peroxidase GPX4 (Homo sapiens) (UniProt P36969)
Assay: Primary qHTS Assay for Inhibitors of Recombinant Selenoprotein Glutathione Peroxidase 4 (GPX4) (AID 1845192); further: nearly all actives have a fitted effect of over 65% in size
Conditions: recombinant GPX4, GR-coupled NADPH fluorescence, 15 min; series mostly up to 50 µM
Procedure, shortened: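 GR-coupled readout: 100 nM GR, 1 mM GSH, 0.5 mM NADPH; NADPH fluorescence (ex 340/em 450 nm) read at t=0 and after 15 min RT. GPX4 200 nM, preincubated 30 min with compound; substrate 0.5 mM CHP.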

Sequence of UniProt P36969 (P36969 whole entry, looked up): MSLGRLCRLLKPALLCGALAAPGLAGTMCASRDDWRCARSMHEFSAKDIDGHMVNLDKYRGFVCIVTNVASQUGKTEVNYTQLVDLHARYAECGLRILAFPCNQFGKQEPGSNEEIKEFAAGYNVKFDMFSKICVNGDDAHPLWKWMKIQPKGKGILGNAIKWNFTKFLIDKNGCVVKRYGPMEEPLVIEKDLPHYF

For CN(C)c1ccc(C(=C2C=CC(=[N+](C)C)C=C2)c2ccccc2)cc1, which Potency is on record?
The Potency was inconclusive: 25.5 µM [inhibitor, single point].

With O=S(=O)(O)CCSSCCS(=O)(=O)O as the molecule, how does the Potency read?
Its Potency is inconclusive: 22.7 µM [inhibitor, partial curve, poor fit].

Which Potency does the source give for CC(C)C(=O)Oc1ccc(CO)cc1[C@H](CCN(C(C)C)C(C)C)c1ccccc1 here?
The Potency was inconclusive: 28.2 µM [inhibitor, partial curve, poor fit].

Which Potency does the source give for C#CCN(C)Cc1ccccc1 here?
The Potency was “inactive”.

For Cc1ccc(F)c(NC(=O)Nc2ccc(-c3cccc4[nH]nc(N)c34)cc2)c1, which Potency is on record?
The Potency was inconclusive: 20.2 µM [inhibitor, partial curve, poor fit].

With COC(=O)C1=C(C)NC(C)=C(C(=O)OC)C1c1ccccc1[N+](=O)[O-] as the molecule, how does the Potency read?
The Potency was “inactive”.

Which Potency does the source give for N[C@H](CSC(c1ccccc1)(c1ccccc1)c1ccccc1)C(=O)O here?
Its Potency is inconclusive: 18 µM [inhibitor, single point].

Which Potency does the source give for CC[C@@]1(O)C[C@H](O[C@H]2C[C@H](N(C)C)[C@H](O[C@H]3C[C@H](O)[C@H](O[C@H]4CCC(=O)[C@H](C)O4)[C@H](C)O3)[C@H](C)O2)c2c(cc3c(c2O)C(=O)c2c(O)cccc2C3=O)[C@@H]1C(=O)OC here?
Its Potency is inconclusive: 22.4 µM [inhibitor, partial curve].

With C[C@@]1(C2CCCC2)Cc2cc(OCC(=O)O)c(Cl)c(Cl)c2C1=O as the molecule, how does the Potency read?
Its Potency is “inactive”.

Which Potency does the source give for Cc1ccc(O)c(N=Nc2ccccc2)n1 here?
Its Potency is “inactive”.

For CC(C)c1ccc2c(c1)c(SC(C)(C)C)c(CC(C)(C)C(=O)O)n2Cc1ccc(Cl)cc1, which Potency is on record?
The Potency was inconclusive: 32.1 µM [inhibitor, single point].

With O=c1cc(CN2CCOCC2)occ1OCCCCCSc1ccnc2cc(C(F)(F)F)ccc12 as the molecule, how does the Potency read?
The Potency was inconclusive: 32.1 µM [inhibitor, single point].

Target: Luciferin 4-monooxygenase (Photinus pyralis) (UniProt P08659)
Assay: Primary firefly luciferase (FLuc) qHTS assay for identification of artifact compounds. (AID 1845220); further: nearly all actives have a fitted effect of over 60% in size
Conditions: purified firefly luciferase, luminescence, 5 min; series mostly up to 54.1 µM
Procedure, shortened: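 qHTS, 15 min compound preincubation with substrate (10 uM luciferin, 10 uM ATP) at RT, then 10 nM FLuc; 5 min; luminescence; % inhibition vs no-enzyme/DMSO controls, 4-parameter Hill fit.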

Which Potency does the source give for Nc1nccc(Oc2ccc(NC(=O)c3c[nH]cc(-c4ccc(F)cc4)c3=O)cc2F)c1Cl here?
Its Potency is inconclusive: 8.49 µM [inhibitor, partial curve, poor fit].

With Cc1cccc(Nc2nc(-c3ccncc3)cs2)c1 as the molecule, how does the Potency read?
Its Potency is inconclusive: 10.7 µM [inhibitor, partial curve].

Which Potency does the source give for Cc1nc(N)sc1-c1ccnc(Nc2ccc(N3CCOCC3)cc2)n1 here?
Its Potency is active: 5.36 µM.
